Laboratory results as given in article PMC12136788.
The list shows a part of the results.

T1: UNK ZnF1-3 (human, UniProt Q9C0B0 31-174)
T1 sequence: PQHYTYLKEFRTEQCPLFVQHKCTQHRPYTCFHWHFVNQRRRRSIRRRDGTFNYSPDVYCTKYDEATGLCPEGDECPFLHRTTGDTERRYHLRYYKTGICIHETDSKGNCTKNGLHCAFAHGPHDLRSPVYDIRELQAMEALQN

B1: chr7:30656748:30656749:+_ENSG00000106105_ENST00000389266|hu_hu|FALSE|FALSE (ssRNA)
RNA: GGGAGUUCUACAGUCCGACGAUCAUCUGGAGAUAUUCCAACCUUCGUGAGGUAGAGGUAGAUGCGGCCAAUGAAAUAGCCUAAUACUGUGUUAUUAAUCACACCCUGUUCAACAGCAUCUCCCAGGCGCAUUUUCCGAGCGGACAACAGAGGAUUGAGCAUCA
B2: chr12:82822756:82822757:-_ENSMUSG00000042724_ENSMUST00000035987|mus_mus|FALSE|FALSE (ssRNA)
RNA: GGGAGUUCUACAGUCCGACGAUCGGCUGAGGAGGAGAGGCAGUAGACGGAUUUGGCUGAAUGACUCUGUAGUGUCACCCUAAAAGGAAAGGAAGACCGGAGGGUGGGGACAUAUGUGCACACCCCUCUCUAUACAGUCAGAGCCAACAGAGGAUUGAGCAUCA
B3: chr12:42180722:42180723:-_ENSMUSG00000036295_ENSMUST00000043884|mus_hu|mus_mus_mus_hu_True|68_68 (ssRNA)
RNA: GGGAGUUCUACAGUCCGACGAUCCUGUAGGAGAAGAAUCUGUGUGUUAGCUGGCAAUCUGGCUGGGAAGUUUAAAAGACCUAAAUCAUUACAAUCCACUGUAGAUGCUUCCAUAUAAAUGGAUCUGGGUGUAAACCAAGGCCUCAACAGAGGAUUGAGCAUCA
B4: chr1:135029974:135029975:+_ENSMUSG00000046062_ENSMUST00000052529|mus_hu|FALSE|FALSE (ssRNA)
RNA: GGGAGUUCUACAGUCCGACGAUCACGACAGCCUUUCUCAUUUUCCCCUGAUGUUUGAAAAGGAGCCUUAAAAUUUAAAGGGUUGUAGGGGUCAUCAGAAUUACAGAAUGAGUUCCACAGUUUGAGACUCUCUGCUUCAUCUGCCAACAGAGGAUUGAGCAUCA
B5: 153057806_153057926_1113_3pUTR_ENSMUSG00000051413_ENSMUST00000056924|mouse|control|control (ssRNA)
RNA: GGGAGUUCUACAGUCCGACGAUCAGGGAUGUGGGCACCAUACAUACCCAUGGGCAACAUGCCAGGAAAGGCCUUAGCCCCCAUCACGUCCCGAGAGGCCAUGCAAAGCACAGGGCUCAGCUCUUCCUUUACACUGACUGUAGACAACAGAGGAUUGAGCAUCA
B6: 139369889_139370009_2192_CDS_ENSG00000148396_ENST00000313050|human|control|control (ssRNA)
RNA: GGGAGUUCUACAGUCCGACGAUCCCACAGAGUCGUUGCUGGGCUCUCACACUUCACGGGCCCCUGGGUCCUGGCUGAAGGCCUCUUCUCGGGUGCUGGAUACACAGUAUCCAAGGGCGGUGCCCCUGCGUGCGGAAGCAUGUGCAACAGAGGAUUGAGCAUCA
B7: chr10:33190432:33190433:-_ENSG00000150093_ENST00000302278|hu_mus|hu_hu_hu_mus_True|8_58 (ssRNA)
RNA: GGGAGUUCUACAGUCCGACGAUCUACAUUUUCCAAACCUGCAUGUGAAUAAAACCCUGGCCACAGAGCCCCAAAACUACCUAACUGUGACUAAGAUGCUGCUGCUGUGAGCUUGGUGUUGCAAAAUUUUGCACGGGAGGAUUCCAACAGAGGAUUGAGCAUCA
B8: chr11:74490848:74490849:-_ENSMUSG00000020745_ENSMUST00000021091|mus_hu|FALSE|FALSE (ssRNA)
RNA: GGGAGUUCUACAGUCCGACGAUCACAGAUAGCAGAAAGAAAAACAGGAAUUAAUAAUCCAACAUAAAAUGACACUGUCAACUAUUCAGUUUAGUGCCCUAGUUCAAUUGAUUCAACUUCUGCCUUCUUAGGCCUGGUGUGACCCAACAGAGGAUUGAGCAUCA
B9: chr1:59768832:59768833:+_ENSMUSG00000026020_ENSMUST00000027174|mus_mus|motif|central (ssRNA)
RNA: GGGAGUUCUACAGUCCGACGAUCCAUACUGACUCACAACCAUCCAGGUUAAACAAUGGAUUCUUUUGAACUCCACAGACGGAGGUGUAUAAGCAGUACACAUAUACACAUGCAAGAAAAACAAGAGACACAUAGACACACAUGCAACAGAGGAUUGAGCAUCA
B10: chr7:135612270:135612271:-_ENSG00000105887_ENST00000393085|hu_mus|hu_hu_hu_mus_False|28_78 (ssRNA)
RNA: GGGAGUUCUACAGUCCGACGAUCGUUUUUUUCUGAGAUGUUAAAUAGUACUUCAGUAACAAAACUUACUUAACCUUUUAUUAAUGCGUGUUGUACCAAAAGCAGACCAUGGUUUUACAUUUAUUCAAAAAUAUUAACAUUAAGCAACAGAGGAUUGAGCAUCA
B11: 3797199_3800170_768_3pUTR_ENSG00000110713_ENST00000324932|human|control|control (ssRNA)
RNA: GGGAGUUCUACAGUCCGACGAUCGUGGUAUUUGUGGUUCCAAAGAGUCCUCCACUGCUAGUACUGGUUCCAAAAUUGCCAAAGCCAGUUGGUUUAUUUUGUGCAAAGGCAUUGUUUUGGGAUGAGAAGAGACUGGUCCCUGUGCAACAGAGGAUUGAGCAUCA
B12: chr17:57746147:57746148:+_ENSG00000141367_ENST00000269122|hu_mus|motif|central (ssRNA)
RNA: GGGAGUUCUACAGUCCGACGAUCUUGCCCAGUCUUGCAAGCCGCCUGAAUAUAUUUAAAGUGCACAUCUGGGUCCUGACGGAAGUUAACAAUGGACCCCAGAAAAUAAAAGAGACCUUCAAAACUCUUGAAUGAUUCAAAGAGCAACAGAGGAUUGAGCAUCA
B13: chr1:115268999:115269000:-_ENSG00000009307_ENST00000339438|hu_mus|motif|central (ssRNA)
RNA: GGGAGUUCUACAGUCCGACGAUCUAAAAGUCUCACGCAAGUUGCAAUCUGCUGUCCAGGCCUCUGUUUGUCACUAAUACGGAAUUCAACCUUAUCUCCUAUUUGAGGAGAAGUAGAUCCUUCCACAUCCUUGGCUUGAAAAGCCAACAGAGGAUUGAGCAUCA
B14: chr8:24034084:24034085:+_ENSMUSG00000031540_ENSMUST00000044331|mus_mus|FALSE|FALSE (ssRNA)
RNA: GGGAGUUCUACAGUCCGACGAUCGUUCCCAUCAACCUCAAAGACAGAAAUAUUAUUCUUUCGGUAAAUCUCAUUGGCAGGAGGAUGGAACCAACCACAUUUCUUCAUGUGCUGCUGUAGAAUAGUUCUACUUUUCAUAUAUUUCAACAGAGGAUUGAGCAUCA
B15: chr4:38702237:38702238:+_ENSG00000109787_ENST00000261438|hu_hu|FALSE|FALSE (ssRNA)
RNA: GGGAGUUCUACAGUCCGACGAUCUAAGCAGAAAGAUUAUUUUGACCCUCUAACACUAAGUACAUAACAGAAAAAAAAGUGCUAGUAUUUGUAAAACAAUAUUGUUGUAGCCCUCGUUUAAUGCAUGUAAAGAUGGCUUUGUAACAACAGAGGAUUGAGCAUCA
B16: chr1:220276048:220276049:+_ENSG00000067704_ENST00000302637|hu_hu|hu_hu_hu_mus_True|28_58 (ssRNA)
RNA: GGGAGUUCUACAGUCCGACGAUCGCAAAUUGCCUGGUUGGCGGGAAUUGUCCAAGGCUGGGUGGUCCAAACUAAAAUACUAACAGGGGAUGAGGCAUCUGUAAGAGAUGCCAAUUUCGGAGGAGGUCUCAGGAGGGGGAAUCUCAACAGAGGAUUGAGCAUCA
B17: chr15:12753431:12753432:-_ENSMUSG00000022195_ENSMUST00000057256|mus_hu|motif|central (ssRNA)
RNA: GGGAGUUCUACAGUCCGACGAUCUGGAUGUGAGUCGAAAUGUAAAAAACUUACAUUACUGGCAGGAAGAUGCUUUGAGCCGGUGGCCCGGUAUAUAAAGGGUAGAACCUCCUGAUGAUCCUCCACCACCCACACUGGGAGCUUCAACAGAGGAUUGAGCAUCA
B18: 73041835_73044820_1103_3pUTR_ENSMUSG00000016382_ENSMUST00000114059|mouse|control|control (ssRNA)
RNA: GGGAGUUCUACAGUCCGACGAUCCAUACUUUCGGCUCUCUUUAAAUCAUCAGUUUCAUUGAAACCUGACAUGUUAAUAUCUAUCCGUGGCUCCCCUUCUUUCUGUCCCUUCGGUGCGAUUUGAUUGAGCAGAUGGAAAUAGGCCAACAGAGGAUUGAGCAUCA
B19: 107693362_107693482_2543_CDS_ENSMUSG00000032582_ENSMUST00000035201|mouse|control|control (ssRNA)
RNA: GGGAGUUCUACAGUCCGACGAUCGUAAGUGUGACCCAUGGGGCCAGUCCUGUUCUUGAUGAUGCGGACAUUGGCAGUAGUGAGAUGCACGUAGGGCUCCAGCACUUCGACUAUCACUUCGGGUGGAGUGGAACGAUAGAUACGCAACAGAGGAUUGAGCAUCA
B20: chr5:172341789:172341790:+_ENSG00000113719_ENST00000393784|hu_hu|FALSE|FALSE (ssRNA)
RNA: GGGAGUUCUACAGUCCGACGAUCGGGGACCUUGUUGAUGCUGAACUGCCCCUCGAAGCGGCAGCCUGCCCCAUUGUUCAGCGGGAUCUUCAUGGAGUUGUCGAUGUGGCCCACUUCGUGCCUGCCCAUCUCAUCCUGAAUGUCCAACAGAGGAUUGAGCAUCA
B21: 36140214_36142007_1440_3pUTR_ENSG00000100320_ENST00000405409|human|control|control (ssRNA)
RNA: GGGAGUUCUACAGUCCGACGAUCUGGGGGGCUGUCCCAUUUGCAGGGGUCUCACGUCACUUCAGUAGGGGGCAAAUCGGCUGUAGCCACCUCGGUAUAAACUCGCCACAGCGCCAACUCCAUAGCUAGCGGCAGGGGCAAGGGCAACAGAGGAUUGAGCAUCA
B22: chr13:36158134:36158135:+_ENSG00000172915_ENST00000537702|hu_mus|FALSE|FALSE (ssRNA)
RNA: GGGAGUUCUACAGUCCGACGAUCGGUUGUGAAUGGCUCAAUCCGAACAAGCCAUGACAGGGCGGAAGUCGCCGUUGAGUAAUGUGUGUUGUAGUGGAAGGGUGGGCUUUGAUCCUCCUCCCAUGUCUCAUAGCGCUCUGCGUACAACAGAGGAUUGAGCAUCA

Biological target: T1, UNK ZnF1-3
Experiment: nsRBNS (natural sequence RNA bind-n-seq); RBNS binding buffer (assumed for nsRBNS): 25 mM Tris pH 7.5, 150 mM KCl, 3 mM MgCl2, 0.01% Triton X-100, 500 ug/ml BSA, 20 U/ml SUPERase-In, 4 C; UNK is unkempt and MSI1 is Musashi-1; names of the RNAs are library labels; protein concentration not given here; high values mean tight binding

Which binding signal does the source give for B1 here?
Its binding signal is 1.05 enrichment R.

How did the binding signal turn out when B2 was run?
The binding signal was 2.39 enrichment R.

How did the binding signal turn out when B3 was run?
The binding signal was 1.25 enrichment R.

With B4 as the binder, how does the binding signal read?
Its binding signal is 1.02 enrichment R.

For B5, which binding signal is on record?
Its binding signal is 0.897 enrichment R.

With B6 as the binder, how does the binding signal read?
The binding signal was 0.68 enrichment R.

B7 was tested. Which binding signal did it give?
Its binding signal is 1.32 enrichment R.

B8 was tested. Which binding signal did it give?
The binding signal was 0.773 enrichment R.

How did the binding signal turn out when B9 was run?
Its binding signal is 1.38 enrichment R.

B10 was tested. Which binding signal did it give?
Its binding signal is 0.897 enrichment R.

For B11, which binding signal is on record?
Its binding signal is 0.741 enrichment R.

How did the binding signal turn out when B12 was run?
The binding signal was 1.72 enrichment R.

How did the binding signal turn out when B13 was run?
The binding signal was 0.719 enrichment R.

For B14, which binding signal is on record?
The binding signal was 0.895 enrichment R.

How did the binding signal turn out when B15 was run?
Its binding signal is 0.786 enrichment R.

For B16, which binding signal is on record?
Its binding signal is 2.34 enrichment R.

B17 was tested. Which binding signal did it give?
Its binding signal is 1.37 enrichment R.

Which binding signal does the source give for B18 here?
Its binding signal is 1.06 enrichment R.

B19 was tested. Which binding signal did it give?
The binding signal was 1.36 enrichment R.

B20 was tested. Which binding signal did it give?
The binding signal was 0.54 enrichment R.

How did the binding signal turn out when B21 was run?
The binding signal was 0.946 enrichment R.

For B22, which binding signal is on record?
Its binding signal is 0.748 enrichment R.
